Screen size: about 71,000 compounds; about 1,800 (2.5%) were called active. This list was built around the results that the source calls inconclusive (neither active nor inactive); the mix of calls is not that of the screen. Calls follow the shape of the dose curve; as a rule, active = well fitted activation curve with a large enough effect in the signal ratio, with a control signal flat (not every such curve was filed as active); inconclusive = small, poorly fitted or top-dose-only effect, or effect the other way, or a change in a side signal; inactive = flat fitted curve, though single readings scatter; the % refers to the signal ratio. Where the call is inconclusive, the potency comes from a doubtful curve fit.
Experiment: Cell signaling CRE-BLA (Fsk stim); as to activity change, negative = inhibition: % of control where 0% means no effect
Conditions: CHO CRE-bla reporter (cAMP response element driving beta-lactamase), forskolin EC10, beta-lactamase ratio; activity change, negative = inhibition: at 38.2 µM (top of the series) unless noted
Method in brief: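 qHTS titration format; CRE-bla CHO reporter; stimulus EC10 NKH 477, a water-soluble forskolin. Read: CCF4 460/530 nm ratio. Potency expressed as AC50 for activators or inhibitors.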
Potency is read from the fitted curve at half-maximal effect; tags tell the direction and shape of the fitted curve.

Compound	activity change, negative = inhibition	Potency
Cc1c(CN2CCCCC2)c(O)n(CCCO)c(=O)c1C#N	inactive	
CCOc1ccc(N(CC(=O)Nc2cccc(Cl)c2)S(=O)(=O)c2c(C)noc2C)cc1	inconclusive: -20.8%	
CC(=O)Nc1nc(-c2ccc(Cl)cc2)nc(C)c1C(C)=O	inconclusive: 10.2% [at 7.6 µM]	
COc1ccc2cc3cc(C(=O)NCC4CCCO4)oc3nc2c1 (stereo not given)	inconclusive: 37.9%	
CCOc1c(OC)cc(C2C(C#N)=C(N)Oc3n[nH]c(-c4ccncc4)c32)cc1OC (stereo not given)		inconclusive: 3.98 µM [rising, full curve]
CCc1ccc(C(=O)NCC2COc3ccccc3O2)o1 (stereo not given)	inconclusive: -15.8% [at 7.6 µM]	
COCCn1c(=O)c(-c2ccc(OC)cc2)nc2cnc(N3CCN(C)CC3)nc21		inconclusive: 2 µM [rising, full curve]
CCCn1c(-c2ccc(F)cc2)nc2c(NC3CCN(Cc4ccccc4)CC3)nc(C)nc21	inactive	
Cc1cccn2c(=O)c3cc(C(=O)NCC4CCCO4)c(=N)n(Cc4cccnc4)c3nc12 (stereo not given)		inconclusive: 5.01 µM [rising, partial curve]
CCOC(=O)C1=C(C)N(C2CCCCC2)C(=O)C1		inconclusive: 1.26 µM [rising, partial curve]
O=C(Oc1ccc2ccccc2c1Cl)N1CCCC1	inconclusive: 24.1%	
Cc1occc1-c1nnc(SCC(=O)NC(=O)NC(C)C)n1N	inactive	
Cc1cc(C)n2c(SCC(=O)N(C)C3CCS(=O)(=O)C3)nnc2n1 (stereo not given)	inconclusive: -8.85%	
COc1ccc(CNC(=O)CS(=O)Cc2nc(-c3ccc(C)cc3)oc2C)cc1 (stereo not given)	inactive	
CC1(C)NC(=O)N(CC(O)CN2CCCCC2)C1=O (stereo not given)	inactive	
O=C(CSCc1ccccc1)Nc1nccs1	inactive	
COC(=O)c1cc(Br)ccc1OC(=O)c1cccnc1	inactive	
CC(C)CN1CC2(CCN(C(=O)c3ccco3)CC2)C1	inactive	
CCOC(=O)c1c(O)c2c(n(Cc3ccco3)c1=O)CCCC2	inconclusive: 1.16%	
Cc1ccc2c(C(=O)CN3CCCC3)c(C)[nH]c2c1	inconclusive: 6.7%	
CCC1Oc2ccccc2N(CC(=O)NCCCN2CCCCC2C)C1=O (stereo not given)	inactive	
CCOc1ccc(-c2nc(S(=O)(=O)c3ccccc3)c(NCc3cccnc3)o2)cc1		inconclusive: 25.1 µM [rising, single point]

Compound	activity change, negative = inhibition	Potency
Cc1cc2c(=O)n(NC(N)=O)c(C)nc2s1	inconclusive: 0.552%	
CCCCn1c(CCCNC(=O)CC)nc2ccccc21	inactive	
COc1ccc(N(Cc2cc3cc(OC)ccc3[nH]c2=O)C(=O)C2CCCO2)cc1 (stereo not given)	inconclusive: -0.781%	
COc1cc(C(=O)N2CCN(c3ccc(C)cc3C)CC2)cc(OC)c1OC		inconclusive: 10 µM [rising, partial curve]
CC1CCN(C(=O)CSc2nc3ccccc3[nH]2)CC1	inactive	
Cc1cccc(CNc2cc(-c3ccccc3Cl)ncn2)c1	inconclusive: 27.2%	
CC(c1ccco1)N(C(=O)COc1ccc(Cl)cc1Cl)c1ccccn1 (stereo not given)	inactive	
COc1ccc(CCN2CC(C#N)=C3c4cc(OC)c(OC)cc4CCN3C2)cc1OC		inconclusive: 1.26 µM [rising, partial curve]
Cc1ccccc1CN1CCN(CC(=O)NCc2ccccc2)C1=O	inactive	
CCOC(=O)c1c(C)[nH]c(C(=O)CN2C(=O)NC(CC)(c3ccccc3)C2=O)c1C (stereo not given)		inconclusive: 25.1 µM [rising, single point]
COc1ccc(-c2noc(CCC(=O)N3CCN(Cc4ccccc4)CC3)n2)cc1	inactive	
COc1ccc(CCC(=O)NCc2cnn(C)c2)cc1	inactive	
CN1CCN(c2ncc3nc(-c4cn(C)c5ccccc45)c(=O)n(-c4ccccc4)c3n2)CC1		inconclusive: 6.31 µM [rising, partial curve]
N[C@@H](Cc1ccnnc1)C(=O)O	inactive: -0.116% [at 7.6 µM]	
CCOC(=O)C1=C(CS(=O)(=O)c2ccc(F)c(C)c2)NC(=O)NC1c1ccc(O)c(O)c1 (stereo not given)	inactive	
CCOCCn1c(CN2CCC(C)CC2)nc2c1c(=O)n(C)c(=O)n2C	inconclusive: -4.43%	
COc1ccccc1N1CCN(C(=O)c2sc3nc(-c4ccc(F)cc4)cn3c2C)CC1	inconclusive: -22.7%	
CCCSc1oc(-c2ccco2)nc1S(=O)(=O)c1ccccc1	inactive	
CN(C(=O)CN1CCC(NC(=O)C2CCCCC2)CC1)C1CCCCC1	inconclusive: -14.7%	
CCc1ccc2[nH]cc(C(=O)OCCOC)c(=O)c2c1	inconclusive: 1.14%	
O=C(CCN1CCc2ccccc2C1)Nc1ccccc1F	inconclusive: -11.4%	
CCOc1ccc(Cn2nnc(C(=O)NCc3ccc(OC)cc3)c2N)cc1	inactive	

Compound	activity change, negative = inhibition	Potency
Nc1nnc(COc2ccc(Br)cc2Br)s1	inconclusive: 38.3% [at 7.6 µM]	
Cc1csc2nc3ccccc3c(=O)n12		active: 10 µM
COCCN1C=C(C(=O)OC)C(c2ccc(OC)c(OC)c2)C(C(=O)OC)=C1	inconclusive: 25.7%	
O=C(NCc1ccc2c(c1)OCO2)C1CC(=O)N(C2CCCC2)C1 (stereo not given)	inconclusive: -1.8%	
Cc1noc(C)c1C(=O)N1CCC2(CCN(Cc3ccncc3)CC2)CC1	inactive	
CCOCCCn1c(=S)[nH]c2cc(C(=O)N3CCOCC3)ccc2c1=O	inactive	
CC(CCc1ccccc1)NC(=O)C1CCN(S(=O)(=O)c2cnc[nH]2)CC1 (stereo not given)	inconclusive: 19.8%	
Cn1cc(-c2nc3cnc(N4CCNCC4)nc3n(C3CC3)c2=O)c2ccccc21		inconclusive: 3.98 µM [rising, partial curve]
O=C(NC1CCN(C(=O)NC2CCCCC2)CC1)c1ccco1	inconclusive: -6.64%	
NC(=O)C1CCN(C(c2ccccc2Cl)c2nnnn2CC2CCCO2)CC1 (stereo not given)	inactive	
CCOC(=O)c1cccc(NC(=O)C2CCCN2S(=O)(=O)c2cccc3cccnc23)c1 (stereo not given)		inconclusive: 12.6 µM [rising, partial curve]
COc1ccc(S(=O)(=O)n2nc(OC(=O)c3ccccc3)cc2N)cc1	inactive	
Nc1nc2c(s1)CCc1c-2cnn1-c1ccccc1	inconclusive: -23.1%	
COc1cc2nc(NC(=O)c3ccccc3)[nH]c(=O)c2cc1OC		inconclusive: 12.6 µM [rising, single point]
c1ccc(Oc2nc(Oc3ccccc3)nc(N3CCOCC3)n2)cc1		inconclusive: 12.6 µM [rising, partial curve]
CCc1c(C(C)O)oc2ccc3c(C)cc(=O)oc3c12 (stereo not given)		active: 3.16 µM
Clc1ccc(OCc2nnc3n2N=C(c2ccc4c(c2)OCCO4)CS3)c(Cl)c1		active: 12.6 µM
CC1Oc2ccccc2N(Cc2ccccc2Cl)C1=O (stereo not given)	inconclusive: 17.6%	
CCC(=O)Nc1c(C)cc(C)cc1Cl	inconclusive: 38.5% [at 7.6 µM]	
COc1ccc(-c2cc(C(F)(F)F)nc(N3CCN(C)CC3)n2)cc1	inconclusive: 15.5%	
CC12CC(NC(=O)N1c1cccc(C(=O)Nc3ncn[nH]3)c1)c1ccccc1O2 (stereo not given)		inconclusive: 6.31 µM [falling, partial curve]
O=C1c2ccccc2CCC1C(O)c1ccccn1 (stereo not given)	inactive	

Compound	activity change, negative = inhibition	Potency
O=C(CN(Cc1ccco1)C(=O)CNS(=O)(=O)c1ccc(Cl)cc1)NC1CCCCC1	inconclusive: -9.21%	
O=C(NCc1ccco1)C1CCCN(S(=O)(=O)c2cccc3nsnc23)C1 (stereo not given)	inconclusive: -22%	
Clc1ccccc1-c1nnc2sc(-c3ccc4c(c3)OCO4)nn12		inconclusive: 12.6 µM [rising, single point]
Cc1cccc(N2CCN(C(=O)CCn3c(=S)[nH]c4cc5c(cc4c3=O)OCO5)CC2C)c1 (stereo not given)	inactive	
O=C(CSc1nnc(-c2cccnc2)n1Cc1ccco1)N1CCc2ccccc21	inactive	
CCc1nc(NCCCn2ccnc2)c2oc3ccccc3c2n1		inconclusive: 10 µM [rising, partial curve]
O=C(CSc1nnnn1-c1ccccc1)N1CCc2ccccc2C1	inconclusive: 14.8%	
COc1cccc(-n2c(Cc3cc(=O)[nH]c(=O)[nH]3)nnc2SCC(=O)N2CCC(C)CC2)c1	inconclusive: 16.2%	
O=C(NCc1cccnc1)c1cc(-c2ccco2)on1	inactive	
O=C(COC(=O)c1cncc(Br)c1)NCc1ccco1		inconclusive: 5.01 µM [falling, single point]
CC(C)C[C@@H](CC(=O)N[C@@H](CCCN)CC(=O)N[C@@H]1CCCC[C@H]1C(=O)N[C@H](CC(=O)N[C@@H](CCC(=O)O)CC(=O)O)Cc1c[nH]c2ccccc12)NC(=O)[C@@H]1CNCC[C@H]1N	inconclusive: -17%	
CCNS(=O)(=O)c1ccc(C)cc1	inactive	
COCCN1Cc2cccc(C(=O)Nc3ccccc3OC)c2C1=O		inconclusive: 0.00316 µM [rising, full curve, poor fit]
CN(C)C(=O)COc1ccc2ccc(=O)oc2c1	inactive	
N#C/C(=C\c1ccc(O)c(O)c1)C(=O)NCCCCc1ccccc1	inconclusive: -27.3%	
COc1ccc2c(c1)c(=O)oc1cc(OCC(=O)N3CCCC(C)C3)ccc12 (stereo not given)	inconclusive: -16%	
CCCCOC(=O)c1cc(=O)[nH]c2ccccc12	inactive	
CSCC[C@@H](Nc1nc(-c2ccccc2)nc2c1oc1ccccc12)C(=O)O		inconclusive: 7.94 µM [rising, single point]
COC(=O)c1ccc(C(NC(=O)OCc2ccccc2)/C(=C/[C@@H](C)C(=O)NCc2ccccc2)c2cccnc2)cc1 (stereo not given in full)	inactive	
